# Source: the supplement of paper PMC11417369
# The list shows a part of the results.
# Tested on: PfAP2-HC AP2 domain (GST-tagged)
# Assay: gcPBM binding intensity (ln(normalized median fluorescence intensity)); higher = stronger DNA binding
# In short: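 Binding intensity is defined as the maximum Masliner-normalised natural-log median intensity across replicate spots for either probe orientation. It was measured on an Agilent 4 × 180k array of primer-extended double-stranded 36-bp intergenic genomic probes and negative controls, to which GST-tagged P. falciparum DNA-binding domains made in E. coli were applied for 1 h in 1× PBS with 1% milk, 0.2 mg/ml BSA, 0.5% salmon testes DNA and 0.03% Triton X-100. Detection was by Alexa488 anti-GST antibody and scanning at 488 nm.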
row,Sequence,gcPBM binding intensity (ln)
1,CAAATATAAATATATACATGCATCTATCTATATAAA [TGCATGCA_site369],9.53
2,AATCAAAAATCAAACGCATGTAGTATAATAGATAAG [TGCATGCA_site753],9.86
3,AAATTGTAGCACCAAGCATGCTAAAAGGACATATGA [TGCATGCA_site717],9.88
4,AAATTATATCATTTATTTTTTTATATTTTTTATATT [CACACA_negctrl_site685],9.63
5,AATTTCCTTTTTTAAAGTACACAAAAGTTCACTTTG [XGTACX_site4460],9.45
6,TATAATTTATTAAGGGGTACATATATTTCATGATAA [XGTACX_site5141],9.46
7,AAGATTAAAAATTGCACACAAAAATATATTTTCTAT [CACACA_site1305],9.93
8,TAGTATAAAATTATGTGTACACAAATATAACTTTTC [XGTACX_site5971],9.79
9,AAAAAAAAAAAAAGGTGTACAAGTATAATTACATAA [XGTACX_site534],9.77
10,TATTTATTGTGATACTTTTATTGTTTAATGATTAAA [CACACA_negctrl_site495],9.54
11,AAAAAAAAAAATATCACACACACATAAATATAAACC [CACACA_site2278],10.4
12,AAATTATATCAATGTTGTACATATTATTTTTTTCTC [XGTACX_site5948],9.63
13,TTTTTTCAATTTTTTTTAAATAAACCACAAAAAAAA [CACACA_negctrl_site1701],9.05
14,TAATGTAAAATTTAGAGTACATAAAAAATTGGATGA [XGTACX_site7225],9.67
15,AAATAAAAAAAGAAACGTACATATATTGGTTTCGTC [XGTACX_site3510],9.71
16,AAACTATAATATATTACACACATATATTTTATAAGT [CACACA_site6460],9.85
17,GGAATAGTAATATATACACACAAATACAGATATATA [CACACA_site4213],10.3
18,AATTGAATTTTAAAAGAAAAAAAAAAAAAAAAATAA [XGTACX_negctrl_site195],9.33
19,TGGAGGTCAGTTCACAGTACCCAGAAACTCTACGGA [XGTACX_site4927],9.3

row,Sequence,gcPBM binding intensity (ln)
1,CATACAGATATATATACACACATACAGATAAATACA [CACACA_site4592],9.95
2,AACATACATAAACACACACACACACCCACAGAGACA [CACACA_site4430],11
3,CTTATAAAAAAAAAAACATGCAACAGTAAAGAACAA [TGCATGCA_site892],9.7
4,AAAAAAATAAGTATTGAACAATTAAGGAAAAACATG [GTGCAC_negctrl_site464],9.76
5,GGTAATTTTTTTTAAATACACACTGAAATGTGAATT [CACACA_site564],9.52
6,CTTGTCATTGGGCACACACACATGTATAGGTTATTA [CACACA_site3058],10.1
7,GAGTAAACATATATATGTACATAAAGTTAACATTGC [XGTACX_site2225],9.99
8,ATTTTTTTTCATATAACACACACACTAATATAATGT [CACACA_site9226],10.4
9,TGAACACCCACAAATACACACAAAAAAAATAAATAA [CACACA_site248],10.6
10,ATATATTATATAATATGTACATAATAAAATTTAAAT [XGTACX_site1900],9.67
11,ATCTAAATAATATATATATATAATATTAATAATATA [CACACA_negctrl_site1620],9.49
12,TTTTTATTTATATATATATATATATATTATATATAA [CACACA_negctrl_site1654],9.52
13,ACAAGATCTAGATACACACACATATCTCTCAATCTA [CACACA_site6453],9.93
14,AATAATTGAAAAACACAAAAATGATTTTCCATAAAT [CACACA_negctrl_site1555],9.55
15,GGGACAGGACGAAAAAATAAATAAATAAATAAAAAA [CACACA_negctrl_site155],9.4
16,GTAAAAAAATAGCACACACACAAAAACACGCACAAA [CACACA_site6723],11.4
17,AATAAATAAATATATACACACATATCTGTCTACATA [CACACA_site5708],9.9
18,TTATTTTTTTTATATATATGTATAAATATATATATA [XGTACX_negctrl_site441],9.6
19,ATATTTATATGGTTTGCACACATAACAACTATGGTT [CACACA_site3631],10

row,Sequence,gcPBM binding intensity (ln)
1,ATATAACATATCAATTGTACGTATTGATAATATATA [XGTACX_site2504],9.63
2,TTTTGTTTTAATTTTATTTGATTTTATTTGATTTAT [CACACA_negctrl_site692],9.67
3,AGGCACACAAACATATGTACACATATATATATATAT [XGTACX_site4723],9.91
4,TTTATTGAACGTACACATATATATATGTATATATTT [TGCATGCA_negctrl_site141],9.7
5,CAAAAGGATATGCACACACACACACGGATATTTATA [CACACA_site7099],11.4
6,TTTTGTTATTAGAGGGTGCTTATAATGAACTCCTAC,9.55
7,GACAAAATGATAGGGACACACAATATCAATGTTTAA [CACACA_site765],9.81
8,TCAATCATCTTATATAGTACACATAAAAGTATTATA [XGTACX_site8513],9.44
9,AAAAAAAAAAATCCAGTGCATATATTTTTTACATAT,9.66
10,ATTACATTAATAAGAGTGCATTATATAAGTTTTATG,9.6
11,CCACTAATAAATATTACACACATATAGATTTATATT [CACACA_site7465],9.76
12,AAAAAAAAAAATTACACACATACATATAATAATAAT [CACACA_site2193],10.2
13,CGTATATATATATACACACACATATATATATGTAAA [CACACA_site195],10.1
14,AAAAACTTAATATTCACACATATATATATATATATA [CACACA_site5240],9.6
15,TACGTTCTAATATATACACACCTGGTATTAATTATG [CACACA_site5260],9.89
16,GAAAAATTTTTATATGTGCACATGTTATATATAATT [GTGCAC_site9742],9.81
17,AAATATTATTTATTTACACACCAATCTTCTTTTCTT [CACACA_site3990],9.89
18,TTTACAAAAAATTATACACACACGTACATATAAATA [CACACA_site945],10.1
